Results: the supplement of paper PMC12217912
The other results are listed elsewhere or left out. The full chains were built here from the parent and the listed change. Inactive controls read about 0.05.

B1: TEV protease; numbered along this chain (parent)
chain: MGESLFKGPRDYNPISSSICHLTNESDGHTTSLYGIGFGPFIITNKHLFRRNNGTLVVQSLHGVFKVKDTTTLQQHLVDGRDMIIIRMPKDFPPFPQKLKFREPQREERICLVTTNFQTKSMSSMVSDTSCTFPSGDGIFWKHWIQTKDGQCGSPLVSTRDGFIVGIHSASNFTNTNNYFTSVPKNFMELLTNQEAQQWVSGWRLNADSVLWGGHKVFMVKPEEPFQPVKEATQL

Variants of: B1
Assay: raw area under fraction-flipped curve 0-4 h after induction (AUC4h, not background-subtracted), DNA-recorder readout of cleavage of the substrate (dimensionless); higher = more cleavage of the substrate by the protease variant
Conditions: temperature: 34 °C; time window: 0-4 h after rhamnose induction
Description: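 In vivo DNA recorder in E. coli TOP10(DE3) ΔrhaA at 34 °C. Each TEVp single-site mutant (parent TEVp 0) is paired with a single-site variant of the 7-mer TEVs (canonical ENLYFQ|S). The substrate sits between flexible linkers in a Bxb1-sfGFP-TEVs-SsrA fusion, so cleavage stabilises Bxb1 and speeds flipping of a recombination array, read by NGS. The value is the raw area under the fraction-flipped curve over 0-4 h after rhamnose induction (AUC4h), with ≥20 reads per time point. It is not background-subtracted; inactive controls average about 0.047.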
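Also: Bxb1 expression induced with 0.2% (w/v) L-rhamnose at OD600 near 0.5, cultures sampled hourly, flipped fraction per protease–substrate barcode pair counted by paired-end Illumina sequencing.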

Variant	area with substrate ENLYCQS	area with substrate ENLYDQS	area with substrate ENLYEQS	area with substrate ENLYGQS	area with substrate ENLYHQS	area with substrate ENLYIQS	area with substrate ENLYKQS	area with substrate ENLYNQS	area with substrate ENLYPQS	area with substrate ENLYQQS	area with substrate ENLYRQS	area with substrate ENLYTQS	area with substrate ENLYWQS	area with substrate ENLYYQS	area with substrate ENLYMQS	area with substrate ENLYSQS	area with substrate ENLYVQS	area with substrate ENLYLQS
H215C	0.0165	0.0632	0.0683	0.033	0.0642	0.0614	0.0582	0.0577	0.0669	0.0627	0.0633	0.0667	0.055	0.0598	–	–	–	–
F49I	0.0614	0.0576	0.0586	0.0584	0.0589	0.0657	–	0.0535	0.0498	0.0574	0.0574	0.0693	–	–	0.0607	0.0699	0.0801	–
N13P	0.0647	0.0643	0.0595	0.0636	0.0685	0.118	0.0614	0.0704	0.0627	0.0667	0.0621	0.0753	0.0749	0.0641	0.0752	–	0.116	0.0889
I86Q	0.0495	0.0517	0.0561	0.0351	0.0435	0.0298	0.0549	0.0411	–	0.0499	–	–	0.0452	0.0496	–	0.0297	–	0.0392
T23C	0.133	0.0717	0.0783	0.0665	0.0631	0.107	0.0825	0.0727	0.0701	0.0623	0.0737	0.0756	0.0874	–	0.0791	0.0563	0.146	0.0776
T23N	0.0881	0.0531	–	0.0508	0.0695	0.117	0.0575	0.0727	–	0.0812	0.0499	–	0.0665	0.0779	0.0716	0.0685	0.109	–
Q105R	0.0784	0.0678	0.0671	0.0686	0.0691	0.123	–	0.0612	0.0687	0.0636	0.0557	–	0.0749	0.0748	0.0804	0.0663	0.112	–
S4H	0.124	0.0527	0.0701	0.0454	0.0695	–	0.0637	0.0714	0.102	0.0342	0.0575	0.0943	0.09	0.0764	0.106	0.0694	0.143	0.109
S124P	–	0.055	0.0566	0.0741	–	0.105	–	0.0772	0.042	–	0.0552	–	–	–	–	–	0.124	0.0705
G37I	0.0603	–	0.112	0.0784	0.0558	0.0959	0.069	0.0619	0.0657	0.0518	0.0554	–	0.0683	0.0666	0.0797	0.0522	0.0866	0.0642
I43S	–	0.0627	0.0562	–	0.0513	–	0.0432	0.0517	0.0669	0.061	0.045	0.0373	0.047	0.0542	0.0527	0.0481	–	–
I43E	0.0579	0.0523	0.0362	0.0424	0.044	0.0409	0.041	0.0362	0.0462	0.0541	0.0473	0.0423	0.048	0.0349	0.0402	0.0432	0.0595	0.0386
T114Y	0.0911	0.0689	–	0.0941	0.0807	0.116	0.0553	0.074	–	–	0.0478	0.0773	–	–	0.083	–	–	0.0917
I110D	0.0564	0.0588	0.0625	0.0422	0.0523	0.0717	0.0198	0.063	0.0573	0.0633	0.0518	–	0.0588	0.0418	0.059	–	–	–
L99D	0.058	0.0559	–	0.0451	0.052	0.0752	–	0.0612	–	0.0533	–	–	0.0863	–	0.0668	–	0.0826	–
Q151M	0.105	0.0596	0.0809	–	0.048	0.106	0.0717	0.0449	–	–	0.0632	–	–	–	0.0797	0.0632	0.0509	–
P93M	0.09	0.0597	0.0569	0.139	0.0659	0.143	–	0.065	0.0729	0.0539	0.0526	–	0.0673	0.0599	–	0.0571	0.115	–
S26H	0.0663	–	0.0684	0.0723	0.0665	0.133	0.0671	0.0678	0.0631	0.0613	0.0565	0.0833	–	–	–	–	–	–
T44S	0.0723	–	0.0607	0.0821	0.0655	0.144	0.0613	0.0581	–	0.0652	0.0678	0.085	0.0735	0.0481	0.0832	–	0.0977	0.0691
T44P	0.0452	0.0407	0.0186	0.0508	0.0414	0.0482	0.05	0.0342	0.0389	0.0432	–	–	0.0431	0.042	0.0449	0.0421	–	–
H76R	0.0793	0.0613	0.0663	0.0852	0.0551	0.0889	–	–	0.0655	–	0.0711	–	–	–	–	0.0633	0.0835	0.0669
C111M	0.0859	0.0521	0.066	–	0.0712	0.0962	0.0617	0.0526	0.073	0.0641	0.0712	0.0783	0.08	0.0539	0.0711	0.0869	0.1	0.066
D149Y	0.0787	0.0589	0.0479	0.0598	0.0569	–	0.0586	0.071	0.0705	0.0565	0.0593	0.0341	0.0682	–	0.076	0.064	0.0427	–
L190Y	0.0711	0.0636	0.069	0.0613	0.0727	0.0549	0.0679	0.0844	0.0531	0.0594	0.045	–	–	0.0346	0.0806	0.0859	0.104	0.0756
S121M	0.0713	–	0.0613	0.0599	0.0634	0.118	0.0611	0.0646	0.0711	0.0556	0.0571	0.0716	0.0766	–	0.0921	0.0609	–	–
